Data taken from PubChem BioAssay AID1346428 (National Center for Advancing Translational Sciences (NCATS), 2018).
The campaign covered roughly 48,000 compounds. About 1,200 (2.5%) were called active. Inconclusive results (about 2%) are left out.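 Rule for the calls: active = activation of at least 60% and not above a set upper limit (about 1 call in 100 departs from these limits); inconclusive = activation of 40% to 60%, or above that upper limit; inactive = activation under 40%.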 The list shows a part of the results.

These molecules were tested against Probable G-protein coupled receptor 32 (Homo sapiens) (UniProt O75388) (assay: qHTS for Agonists of Human Resolvin D1 Receptor DRV1). Details: CHO-K1 GPR32 beta-arrestin PathHunter luminescence, 90 min; at 76.9 µM; stronger effect = higher value; zero percent set by DMSO-only wells.
Method in brief: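 CHO-K1 cells stably expressing ProLink-tagged GPR32 and Enzyme Activator-tagged beta-arrestin were seeded at 2,500 cells/well overnight, exposed to compounds for 90 min at 37 °C, then read by beta-Gal complementation chemiluminescence after 1 h detection reagent.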
Note: 0% is about no effect.

UniProt O75388, sequence (O75388 whole entry, looked up): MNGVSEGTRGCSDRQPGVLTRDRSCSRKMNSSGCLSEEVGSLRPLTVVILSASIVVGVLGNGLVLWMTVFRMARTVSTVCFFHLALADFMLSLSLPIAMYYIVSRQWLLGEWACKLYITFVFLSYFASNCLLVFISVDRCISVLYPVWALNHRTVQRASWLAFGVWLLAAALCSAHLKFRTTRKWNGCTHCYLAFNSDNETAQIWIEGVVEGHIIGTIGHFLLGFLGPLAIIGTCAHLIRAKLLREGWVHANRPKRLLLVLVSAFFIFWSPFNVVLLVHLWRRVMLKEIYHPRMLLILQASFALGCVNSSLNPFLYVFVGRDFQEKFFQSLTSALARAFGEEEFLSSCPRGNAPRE

| Structure (SMILES) | activation |
| --- | --- |
| Cc1cccc(C)c1NC(=O)c1ccc2c(c1)nnn2C1CCCC1 | inactive: 22.1% |
| CCOc1cc(-c2ccc(OC(=O)c3ccccc3Cl)c(OC)c2)cc(=O)c2c(C)oc(C)c12 | inactive: -24.5% |
| COc1ccc(C2CC(=O)Nc3c2c(=O)[nH]c2nc4ccccc4n32)cc1 (stereo not drawn) | inactive: 2.01% |
| CCNC(=O)c1ccc(NC(=O)N2CCCCc3ccccc32)cc1 | inactive: 11.3% |
| CCCCN(CC)CCNC(=O)C1CCN(S(=O)(=O)c2cccc3nsnc23)CC1 | inactive: -0.221% |
| Cc1ccccc1COC(=O)c1nn(-c2ccccc2)nc1N | inactive: -8.06% |
| COc1ccccc1N1CCN(C(=O)Cn2c(=O)n3nc(-c4cccc(F)c4)nc3c3ccccc32)CC1 | inactive: 2.74% |
| Cc1cc(C)cc(NC(=O)CSc2nc3c(c(=O)[nH]2)CN(Cc2ccc(F)cc2)CC3)c1 | inactive: 9.89% |
| CCn1cc(C(=O)Nc2cccc(Cl)c2)c2cc(OC)c(OC)cc2c1=O | inactive: 18.2% |
| CC(=O)c1ccc(N2CCN(S(=O)(=O)c3ccc(-c4coc(C)n4)cc3)CC2)cc1 | active: 63% |
| COc1cc(/C=C(/C#N)c2nc(-c3cc4ccccc4oc3=O)cs2)ccc1O | inactive: -9.98% |
| CC1CCCCN1C(=O)CSc1nc(-c2ccccc2)no1 (stereo not drawn) | inactive: 30.8% |
| Cc1c(Cl)cccc1NC(=O)Nc1c[nH]c(=O)[nH]c1=O | inactive: -4.64% |
| Cc1cccc(NC(=O)CSc2nc3c([nH]c4ccccc43)c(=O)n2-c2cc(C)cc(C)c2)c1 | inactive: 10.2% |
| COc1cc(OC)cc(C(=O)Nc2nc(-c3nnn(-c4ccc(C)cc4)c3C)ns2)c1 | inactive: 38.5% |
| CCOC(=O)C1=C(CN2CCC(C)CC2)NC(=O)NC1c1ccc(OC(C)C)cc1 (stereo not drawn) | inactive: 9.07% |
| CSc1cccc(-n2nnc(-c3nsc(NC(=O)c4cccs4)n3)c2C)c1 | inactive: -9.88% |
| CCOC(=O)c1ccccc1NC(=O)CSc1nc(=O)[nH]c2c1CCCC2 | inactive: 3.99% |
| COc1ccc(Br)cc1CNC(=O)Cn1nc(C)n2c(cc3cc(F)ccc32)c1=O | inactive: 2.71% |
| CCS(=O)(=O)N1CCCc2cc(C(=O)Nc3cc([N+](=O)[O-])ccc3C)ccc21 | inactive: 16.7% |
| COc1ccc(-n2c(C)nc3c(cnn3-c3ccc(C)c(C)c3)c2=O)cc1Cl | inactive: -10.9% |
| CCc1ccc2occ(CC(=O)N(Cc3ccccc3)C3CCS(=O)(=O)C3)c2c1 (stereo not drawn) | inactive: -15% |
| Cc1ccc(NC(=O)CN2C(=O)C(c3ccccc3)=NC23CCCCC3)cc1C | inactive: -17.4% |
